Measured values published in paper PMC4336329 (PLoS ONE, 2015).
Among all 310,000 compounds or so, about 2,200 (0.71%) showed an effect of 50% or more. Effects have a minus sign here. Some of the results follow.

Target: human ether-à-go-go-related gene (hERG) potassium channel (human, UniProt Q12809)
Test: primary screen, population patch clamp on CHO cells stably expressing hERG

Chain of human ether-à-go-go-related gene (hERG) potassium channel (Q12809 whole entry, looked up): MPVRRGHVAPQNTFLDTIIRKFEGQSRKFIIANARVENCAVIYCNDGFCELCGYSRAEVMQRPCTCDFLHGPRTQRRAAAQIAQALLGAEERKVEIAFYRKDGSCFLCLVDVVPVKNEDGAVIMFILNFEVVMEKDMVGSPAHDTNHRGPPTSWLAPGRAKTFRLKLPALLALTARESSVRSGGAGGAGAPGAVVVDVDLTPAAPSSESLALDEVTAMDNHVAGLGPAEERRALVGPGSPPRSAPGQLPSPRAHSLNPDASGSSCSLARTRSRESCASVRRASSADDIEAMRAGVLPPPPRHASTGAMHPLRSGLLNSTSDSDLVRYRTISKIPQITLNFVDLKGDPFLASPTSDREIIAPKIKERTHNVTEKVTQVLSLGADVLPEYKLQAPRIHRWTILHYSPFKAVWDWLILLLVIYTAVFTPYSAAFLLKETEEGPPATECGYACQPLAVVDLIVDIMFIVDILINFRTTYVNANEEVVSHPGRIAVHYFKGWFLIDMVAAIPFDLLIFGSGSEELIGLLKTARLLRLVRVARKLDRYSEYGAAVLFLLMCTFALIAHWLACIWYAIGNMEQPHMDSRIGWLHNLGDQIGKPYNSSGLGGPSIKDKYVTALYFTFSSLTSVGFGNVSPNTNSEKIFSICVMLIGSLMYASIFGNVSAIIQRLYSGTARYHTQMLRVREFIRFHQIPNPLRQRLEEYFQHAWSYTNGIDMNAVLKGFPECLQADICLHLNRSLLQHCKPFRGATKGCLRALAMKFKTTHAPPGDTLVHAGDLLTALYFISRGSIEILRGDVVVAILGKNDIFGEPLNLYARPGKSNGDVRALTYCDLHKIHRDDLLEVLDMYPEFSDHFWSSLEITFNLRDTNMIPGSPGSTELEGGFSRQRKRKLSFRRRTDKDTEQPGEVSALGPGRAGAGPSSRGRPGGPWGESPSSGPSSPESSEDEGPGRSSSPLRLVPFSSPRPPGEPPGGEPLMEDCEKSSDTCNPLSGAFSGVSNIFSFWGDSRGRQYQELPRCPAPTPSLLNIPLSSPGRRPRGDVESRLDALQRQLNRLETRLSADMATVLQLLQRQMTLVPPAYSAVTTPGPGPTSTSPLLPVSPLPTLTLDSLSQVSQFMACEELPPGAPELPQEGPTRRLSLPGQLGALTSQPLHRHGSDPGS

Compound | hERG current change (%, negative = inhibition) at 1uM
Cn1cccc1CC(=O)N/N=C/c1cc([N+](=O)[O-])ccc1Cl | 1.61%
CCc1nc2sc(C(C)=O)c(N)c2c2c1CCCC2 | 18%
O=C(Nc1n[nH]c(=S)s1)c1ccco1 | 7.25%
CSc1nc(N2CCCC2)c2c(c1C#N)CC(C)(C)OC2 | 13.6%
COc1ccccc1N1C(N)=NC(N)=NC1(C)C.Cl | 10.9%
Cc1cc(C)c2sc(N(CCCN(C)C)C(=O)COc3ccc(Cl)cc3)nc2c1.Cl | 0.795%
COCC(=O)Nc1nc(-c2ccc([N+](=O)[O-])cc2)cs1 | 19.5%
O=C(Cc1ccc(Br)cc1)Nc1ccccc1Cl | 15.5%
C=CCn1c(C)nc2c(cnn2-c2ccccc2)c1=O | 7.17%
Cn1c(SCC(=O)N2CCc3ccccc32)nnc1-c1ccc(S(=O)(=O)N2CCCC2)cc1 | 13.4%
Cc1nn(C)c(C)c1S(=O)(=O)N(CC(=O)Nc1ccc2c(c1)OCO2)c1ccc(C(C)C)cc1 | 10.3%
O=[N+]([O-])/C=C1\NCCN1Cc1ccc(Cl)nc1 [22413311] | 11.7%
Cc1cc(C)cc(N(CC(=O)NC2CC3CCC2C3)S(C)(=O)=O)c1 (stereo not shown) | 2.79%
COc1ccc(-c2noc(CN(C)C(=O)c3ccoc3C)n2)cc1 | 11%
CC1(C)Cc2c(sc3[nH]c(=S)n(Cc4ccco4)c(=O)c23)CO1 | 14.6%
COc1ccc2oc(C(=O)Nc3ccc(S(=O)(=O)N(C)C4CCN(C)CC4)cc3)c(C)c2c1 | 17.8%
CN(Cc1ccccc1)c1nc2nonc2nc1N1CCCC(CN2CCCC2=O)C1 (stereo not shown) | 2.4%
COc1ccc(OC)c(C(=O)/C=C/c2cccnc2)c1 | 15.3%
O=C(COc1ccccc1C(=O)O)Nc1nc2ccc([N+](=O)[O-])cc2s1 | 12.5%
CCCCN1C2CCCC1CC(NC(=O)c1ccccc1Cl)C2 (stereo not shown) | 14.3%

Compound | hERG current change (%, negative = inhibition) at 1uM
CCC(C(=O)OCC(=O)Nc1ccc2[nH]c(=O)[nH]c2c1)c1ccccc1 (stereo not shown) | 6.84%
COc1ccc2nc(N3C(=O)CC(Cc4ccc(C)cc4)C3=O)sc2c1 (stereo not shown) | 6.83%
CC1CCCN(C(=O)CCCNC(=O)c2ccc(Cl)cc2)C1 (stereo not shown) | 11.3%
OCCSc1nc(-c2ccccc2)nc2c1CCC2 | 18.3%
Cc1cc(C)n(C(=O)C(C(=O)c2ccccc2)C(C)C)n1 (stereo not shown) | 15.9%
Cc1ccsc1C(=O)OCC(=O)NC1CCCCC1C (stereo not shown) | 8.9%
COc1ccc2[nH]cc(CCN3C(=O)CCC3=O)c2c1 | 9.47%
Cc1ccc(-c2nnc(N3CCN(C(=O)CN4C(=O)c5ccccc5C4=O)CC3)c3ccccc23)cc1 | 9.78%
CC1CCCN(C(=O)c2cccc(S(=O)(=O)N3CCCc4ccccc43)c2)C1 (stereo not shown) | 6.96%
CC(OC(=O)Cc1n[nH]c(=O)c2ccccc12)C(=O)Nc1ccccc1[N+](=O)[O-] (stereo not shown) | 12.3%
C1CCC(n2nnnc2CN2CCN(C3CCCC3)CC2)CC1 | 2.62%
COC(=O)/C(=C/c1ccco1)NC(=O)c1ccc(Br)o1 | 1.62%
Cc1ccc(C)c(N(CC(=O)NC2CCCC2)S(=O)(=O)c2ccccc2)c1 | 15.7%
COc1cc2c(cc1C=O)OC(C)C2 (stereo not shown) | 19.8%
CCOc1cc(C(=O)NC)cc(OCC)c1OCC | 13.2%
CS(=O)(=O)c1ccc(Cl)c(NC(=O)C2CC(=O)N(Cc3ccco3)C2)c1 (stereo not shown) | 17.5%
Cn1c(SCc2cccc(Br)c2)nnc1-c1ccccn1 | 5.9%
O=C(O)c1cc(-c2cccc(Cl)c2)nc2nc(N3CCCCC3)sc12 | 9.08%
CCOC(=O)c1cnc2c(Cl)cccc2c1NCCCN1CCOCC1 | -10.1%
NC(=O)C1CCN(C(=O)CSc2ccccn2)CC1 | 13.7%

Compound | hERG current change (%, negative = inhibition) at 1uM
NC1=NC(=O)/C(=C\C=C\c2ccccc2)S1 | 16.2%
CC(c1ccccc1)N1CCC(CNC(=S)Nc2cccc(Cl)c2)C1 (stereo not shown) | 14.6%
Cc1ccc(-c2c[n+](CC(=O)OCc3ccccc3)c3n2CCC3)cc1.[Br-] | -6.34%
c1ccc(CNc2nnnn2-c2ccccc2)cc1 | -8.7%
Cc1ccc2oc(=O)c3cnn(CC(=O)NCCC(C)C)c3c2c1 | 13.4%
O=S(=O)(NCC1CCCN(Cc2ccccc2O)C1)c1cccc2cccnc12 (stereo not shown) | 9.31%
COc1ccc(CC(=O)N2CCN(C(=O)Cc3ccc(OC)cc3)CC2)cc1 | 2.55%
CN(C)c1cccc(C(=O)NCc2ccccc2Cl)c1 | 14.9%
Cc1ccccc1-n1c(-c2ccc([N+](=O)[O-])cc2)nc2ccccc2c1=O | 9.52%
C=CCn1c(SCC(N)=O)nc2sc3c(c2c1=O)CCC3 | 6.81%
Cc1ccc(Nc2cc(C)nc3c(C)cccc23)cc1 | -8.56%
CCOC(=O)CC1COCCN1C(=O)CCc1nnc(-c2ccsc2)o1 (stereo not shown) | -7.2%
CCCN(CC(=O)Nc1ccccc1C)C(=O)c1cc(C)oc1C | 10.4%
CC1Sc2ccc(S(=O)(=O)CCC(=O)NC3CCCCC3C)cc2NC1=O (stereo not shown) | 3.15%
O=C(CS(=O)(=O)c1cn(Cc2ccc(Cl)cc2)c2ccccc12)N1CCOCC1 | -0.722%
Cc1cccc2c(N=Nc3ccc(S(=O)(=O)Nc4ccc(Cl)cc4)cc3[N+](=O)[O-])c(O)[nH]c12 | 13.9%
CCc1ccc2[nH]c(C(=O)Nc3ccc(C)c(F)c3)cc2c1 | 16.7%
Cc1cc(NC(=O)Cn2cnc3c(nnn3-c3ccc(C)c(Cl)c3)c2=O)no1 | 3.73%
